The values that follow come from PMC12040169 (PLOS Biology, 2025).

The structures appear in SMILES notation. The list shows a part of the results.

The experiment deals with T1, C. trachomatis L2/434/Bu expressing GFP (CTL2-GFP).
T1 construct: L2/434/Bu GFP intracellular growth in HeLa cells
On the set-up: species or system HeLa; C. trachomatis total inclusion area by high-content imaging, normalised to DMSO. The conditions noted are these: total inclusion area; 28.5 h, 10 µM; inhibitor. In a few lines: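 Imaging read-out: GFP inclusions and Hoechst nuclei captured by high-content imaging after fixation. Inclusion area/number = chlamydial growth; nuclei count = host cell viability. MIC calculated per earlier method.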
For `O=C1N(Cc2cccc3ccccc23)c2ccccc2C1(c1ccc(O)cc1)c1ccc(O)cc1` [CBK261410], the “% of control remaining” value is 65.085.

Regarding `O=C(O)CCN1C(=O)c2ccc(Oc3ccc(NC(=O)c4ccc(Cl)c(Cl)c4)cc3)cc2C1=O` [CBK267400], the “% of control remaining” value came out at 89.6341. Under `O=C(N[C@@H](Cn1cc(Cl)c(=O)[nH]c1=O)C(=O)O)C1CCCC1` [CBK289658] stands 96.8804; under `Cc1nc2c(c(=O)[nH]1)CCN(Cc1cccc(Oc3ccccc3)c1)C2` [CBK283989], 95.1335.

Take `CC(=O)N1CCc2c([nH]c3ccccc23)[C@@]12CCN(Cc1ccc(F)cc1)C2` [CBK074955]: the “% of control remaining” value is listed as 92.2944.

With `Cc1c(CN2CCC3(CC2)CC(c2ccccc2)CN(C)C3)cnn1C` (stereo not shown) [CBK306666], the “% of control remaining” value amounted to 66.9057.

Take `Cc1ccc(N(C(C)C(=O)Nc2ccccc2C(F)(F)F)S(C)(=O)=O)cc1` (stereo not shown) [CBK268796]: the “% of control remaining” value was found to be 71.7842. On to `O=C(NCc1ccncc1)c1ncoc1-c1ccc(F)cc1` [CBK282354], for which the “% of control remaining” value amounted to 80.8481.

For `CCn1c(=O)n(CC(=O)NCc2ccccc2F)c2cccnc21` [CBK283890], the “% of control remaining” value worked out at 76.5153. Under `COc1ccccc1OCCOc1c(Cl)cc(/C=C2\SC(=S)NC2=O)cc1Cl` [CBK264848] stands 100.109; under `CCn1cnc2sc(-c3ccccc3)cc2c1=O` [CBK287952], 70.2033. For the molecule `C/C(=N\NC(=O)CCC(=O)Nc1ccc(I)cc1)c1ccc(O)cc1O` [CBK261971], the “% of control remaining” value is 77.4742. The figure for `CCn1c(N2CCC(C(=O)NC(C)C)CC2)nc2ccccc21` [CBK283982] is 73.3336.

For the molecule `Cc1csc2[nH]c(C(C)(C)C)c[n+]12` [CBK025384B], the “% of control remaining” value is 52.1173. Under `OCCN(Cc1cccs1)Cc1c[nH]nc1-c1cccs1` [CBK282599] stands 91.7158.

As for `N#CC1C(=S)NC2=C(CCCC2)C12CCCCC2` (stereo not shown) [CBK288493], the “% of control remaining” value was 108.252. The figure for `O=C(NCc1nnc(-c2cccs2)o1)c1cccc(F)c1F` [CBK284634] is 53.2172; for `COc1cc(/C=C/CN2CCC(C(=O)NC(C)c3ccc(F)cc3)CC2)ccc1OC(C)=O` (stereo not shown) [CBK148061] it is 109.301. The figure for `Cc1ccc(-c2nnc(CN3C(=O)C4(CC(=O)N(C)C4=O)c4cc(F)ccc43)o2)cc1` (stereo not shown) [CBK075453] is 107.269; for `CCCCN1C(=S)SC(C)(C)C1N(O)C(=O)C1CCCCC1` (stereo not shown) [CBK008915] it is 84.079; for `CC(N)(Cc1ccc(Oc2ncc(C(F)(F)F)cc2Cl)cc1)C(=O)O` (stereo not shown) [CBK161647] it is 93.3554. Under `OCCN1CCN(CCCc2ccccc2)CC1` [CBK261872] stands 94.6917. For `O=[N+]([O-])c1ccc(Oc2cccc(Cl)c2Cl)c(C(F)(F)F)c1` [CBK002594], the “% of control remaining” value came out at 41.471. The figure for `CO/N=C(\C(=O)O)c1cn2cccnc2n1` [CBK262252] is 95.3508; for `Cc1cc(C)c(S(=O)(=O)Nc2nnc(C)s2)c(C)c1` [CBK045497] it is 79.5319.

For the molecule `COc1cc(C(=O)N2CCCC3(CC(=O)c4ccc(C)cc4O3)C2)cc(OC)c1C` (stereo not shown) [CBK168239], the “% of control remaining” value was determined as 97.6053. Regarding `COc1ccc(C2NCCc3c2[nH]c2ccccc32)cc1CSc1nc2ccccc2s1` (stereo not shown) [CBK264303C], the “% of control remaining” value worked out at 65.3216.

As for `Cc1nnc(SCc2nnnn2-c2ccccc2)nc1O` [CBK266302], the “% of control remaining” value worked out at 128.179. The figure for `Cc1nn(C)c2c1c(=O)n(C)c(=O)n2C` [CBK026140] is 60.6155; for `Cc1cc(OC(=O)C2CCC(CNC(=O)OC(C)(C)C)CC2)c2c3c(c(=O)oc2c1)CCC3` (stereo not shown) [CBK083583] it is 103.446; for `Clc1ccccc1-c1nccnc1OCCOc1ccccc1` [CBK107011] it is 92.0813. The figure for `COc1cccc(C(O)CN2CCC3(CC2)CC(O)c2cc(C)ccc2O3)c1` (stereo not shown) [CBK286338] is 116.154; for `Cc1ccc(OCC(=O)NC(=S)Nc2ccc(Cl)c(-c3nc4ncccc4o3)c2)cc1` [CBK263930] it is 88.9565.

For the molecule `COc1cc2c(c(OC)c1OC)C1(CCN(Cc3ccc(S(C)(=O)=O)cc3)CC1)NC(=O)C2` [CBK040014], the “% of control remaining” value is given as 95.3801. The figure for `Cc1cc(C)n(CCCn2cncc2-c2cnn(C)c2)n1` [CBK281771] is 79.7476.

In the case of `Cc1ccc(S(=O)(=O)NCCCC(=O)Oc2cc3oc(=O)c4c(c3cc2Cl)CCC4)cc1` [CBK264967], the “% of control remaining” value is 104.115. The figure for `COc1ccc(Br)cc1CNCCCN1CCOCC1` [CBK278208C] is 120.047; for `O=S(=O)(c1ccc(Cl)c(S(=O)(=O)N2CCOCC2)c1)c1ccc(Cl)c(S(=O)(=O)N2CCOCC2)c1` [CBK261369] it is 91.3628. Turning to `COc1ccc(C(NC(=O)NNC(=O)CCC(=O)c2ccc(F)cc2)c2ccccc2C)cn1` (stereo not shown) [CBK083659], the “% of control remaining” value is on record as 123.252.

On to `COc1cc(-c2cncc(N[C@@H](C)c3ccccc3)n2)cc(OC)c1OC` [CBK065551], for which the “% of control remaining” value was found to be 113.396. As to `CN(C)C(=O)c1ccc(-c2ccc3c(c2)COC(C2CCN(C(=O)Cc4ccc(C#N)cc4)CC2)O3)cc1` (stereo not shown) [CBK149760], the “% of control remaining” value was 55.6376. With `CCOC(=O)C1N(C)C(=O)C(Cc2c(Cl)cccc2Cl)=C(C)N1C` (stereo not shown) [CBK112643], the “% of control remaining” value is 66.6139. Under `CNC(=O)C1(Cc2ccc(-c3cccc(C)c3)cc2)CCN(C(=O)C(C)(C)C)CC1` [CBK285755] stands 102.186; under `NC(=O)C1CCN(C2CC(=O)N(c3cccc([N+](=O)[O-])c3)C2=O)CC1` (stereo not shown) [CBK265555], 96.5501.

Turning to `O=C(C1=C(O)C(=O)N(CCCN2CCOCC2)C1c1ccc(Cl)c(Cl)c1)c1cccs1` (stereo not shown) [CBK264565], the “% of control remaining” value turned out to be 98.6848. In the case of `Cc1nnc(CN(C)C2CCN(CC3CCCC3)C2)n1C` (stereo not shown) [CBK304851], the “% of control remaining” value came to 81.4896. The figure for `O=C(O)c1cc(C(=O)O)n(Cc2ccccc2Cl)n1` [CBK269381] is 119.197. Under `Cc1ccc(S(=O)(=O)N(CC(=O)N/N=C\c2ccc3c(c2)OCO3)c2cccc3cccnc23)cc1` [CBK262478] stands 72.8381; under `Cc1ccc(C(=O)C2=C(O)C(=O)N(Cc3cccnc3)C2c2cccc(Oc3ccccc3)c2)o1` (stereo not shown) [CBK264619], 108.774; under `O=C(Nc1cccnc1)N1CCN(CCc2ccccc2)CC1` [CBK158937], 67.4203. Consider `COc1ccc(C=O)cc1CSc1nc2ccccc2[nH]1` [CBK266209], for which the “% of control remaining” value is given as 103.287.

As to `Cc1cc(C)n(C2CN(C(=O)NCCCOc3cccnc3)C2)n1` [CBK307632], the “% of control remaining” value amounted to 63.1823. Under `CCCC/C=C/c1cnc(N)c(Nc2ccc(OC)cc2C)n1` [CBK064090] stands 119.75. The figure for `CN(CCN1CCCCC1)C(=O)C1CC(=O)Nc2ccccc21` (stereo not shown) [CBK282729] is 132.441; for `Cc1ccc(-c2ccccc2CC2(C(=O)Nc3cccc(C(N)=O)c3)CCOCC2)c(C)c1` [CBK286423] it is 74.9578; for `COc1ncc(-c2cnc3[nH]c(=O)n(CC4CCOCC4)c3n2)cn1` [CBK064898] it is 126.147. Under `COCCNC(=O)c1nn2c(c1Br)NC(c1cccs1)CC2C(F)(F)F` (stereo not shown) [CBK307178] stands 62.498. With `O=C1CN(C(=O)CCn2c(C(F)(F)F)cc3cccnc32)CCN1` [CBK284888], the “% of control remaining” value is 107.938. The figure for `CCOc1cccc(C(=O)NN2CCN(C)CC2)c1` [CBK268184] is 96.2545; for `C#CCOc1cncc(Cl)n1` [CBK113370] it is 78.5823; for `Cc1ccc(S(=O)(=O)NC(=O)c2cc(C)n(-c3ccc(N(C)C)cc3)c2C)cc1` [CBK296085] it is 69.9571. Turning to `COc1cc(NC(=O)c2c(C)[nH]c(=O)[nH]c2=S)cc(C(F)(F)F)c1` [CBK115495], the “% of control remaining” value was 90.7659. The figure for `Cc1ccc(-c2nc(Nc3ccc(F)cc3)sc2CC(=O)O)cc1` [CBK264286] is 108.526; for `CC(C)Cc1cnc2c(c1SCc1ccc(F)cc1)c(=O)n(C)c(=O)n2C` [CBK294409] it is 111.186. The figure for `CCN1CCN(Cc2c(C(C)C)[nH]c3ncccc23)CC1` [CBK285343] is 88.819; for `O=C(NC1CCN(C(=O)Cn2ccc3ccncc32)CC1)C1CC1` [CBK284731] it is 69.5255; for `CCC1(CC)Cc2ccccc2-c2nc(NN)n(Cc3ccccc3)c(=O)c21` [CBK263217] it is 13.496. Under `CC(C(=O)Nc1ccc(S(N)(=O)=O)cc1)N1Cc2ccccc2C1=O` (stereo not shown) [CBK307607] stands 63.9994. With `COc1cc(Nc2nc(-c3cccc(NC(C)=O)c3)cn3ccnc23)cc(OC)c1OC` [CBK038093], the “% of control remaining” value was 108.541. Under `Cc1ccc(S(=O)(=O)c2cc3c(=O)n4ccccc4nc3n(CCCN3CCOCC3)c2=N)cc1` [CBK265590] stands 94.0364; under `Brc1ccsc1-c1csc(-c2ccccc2)n1` [CBK019859], 78.5009; under `CCOC(=O)C1=C(N)OC2=C(C(=O)CC(C)(C)C2)C1c1cc(OCC)ccc1OCC` (stereo not shown) [CBK008699], 109.379. The figure for `CC(NC1=NC(C)(C)Cc2ccccc21)C(=O)O` (stereo not shown) [CBK262575] is 105.42; for `O=C(c1cccs1)N1CCC(n2cnc3cccnc32)CC1` [CBK283938] it is 65.0987; for `Cc1ccc2nc(SCCC(=O)O)cc(C)c2c1` [CBK286861] it is 88.8169. The figure for `c1ccc2c(c1)CCCN2Cc1ncc[nH]1` [CBK138332] is 85.6173.

Turning to `COC(=O)c1ccccc1NC(=O)CNC(=O)c1ccccc1Cl` [CBK269113], the “% of control remaining” value was 111.169. The figure for `COc1c(C)cccc1C(=O)N1CCC(c2cc3cnccc3[nH]2)CC1` [CBK283460] is 97.5258; for `CN(C)c1cccc(NC(=O)Nc2ncc(Br)c3cccnc23)c1` [CBK107633] it is 95.1731.
